The whole screen tested about 45,000 compounds, of which about 200 (0.44%) were called active. Inconclusive results (about 7%) are left out. Calls follow the shape of the dose curve; as a rule, active = well fitted activation curve with a large enough effect; inconclusive = small, poorly fitted or top-dose-only effect; inactive = no such curve, though single readings can be large or run the other way. The list shows a part of the results.
assay: qHTS of TDP-43 Inhibitors: NCGC Sytravon Library Screen; conditions: yeast TDP-43 toxicity rescue, BacTiter-Glo growth, 24 h; series mostly up to 46.1 µM; growth rescue (activation): at the top concentration; also: nearly all actives have a fitted effect of over 55% in size; as to growth rescue (activation): 0% is about no effect
In short: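 TDP-43-expressing yeast, pregrown in raffinose, seeded at OD600 0.02 in galactose medium with compound for 24 hr at 30 deg C. Growth read by BacTiter-Glo luminescence, so rescue of toxicity appears as activation.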
Potency is read from the fitted curve at half-maximal effect.

| SMILES | growth rescue (activation) | Potency |
| --- | --- | --- |
| COc1ccccc1-c1ccc2c(c1)C(C)(Cc1ccc(OC(F)(F)F)cc1)C(=O)N2 (stereo unspecified) | inactive: -2.43% | – |
| Cc1ccc(NC(=O)Cc2nc(COC(=O)c3c(F)cccc3Cl)cs2)cc1 | inactive: 18.5% | – |
| Cc1cccc(-n2c(Cc3ccccc3)n[nH]c2=S)c1 | inactive: 11.2% | – |
| Cc1cc(C(=O)NC2CCCC2)c2ccccc2n1 | inactive: -0.0302% | – |
| Cc1ccc(C)c(SCC(=O)Nc2cccc(S(=O)(=O)N3CCOCC3)c2)c1 | inactive: 14.8% | – |
| O=C(CCn1nnc2ccccc2c1=O)N[C@@H](Cc1c[nH]c2ccccc12)C(=O)O | inactive: -8.31% | – |
| C/C(=N/NC(=O)CN1CCN(Cc2ccccc2Cl)CC1)c1ccco1 | inactive: 12.6% | – |
| Cc1ccc(-c2cc(C(=O)Nc3cccnc3)[nH]n2)c(O)c1C | inactive: 5.66% | – |
| CCNC(=S)Nc1cc(OCC)c(NC(=O)c2cccs2)cc1OCC | inactive: 12% | – |
| Cc1c(C(=O)c2ccc(F)cc2)c2ccccn2c1CCc1ccccn1 | inactive: 5.62% | – |
| COCCN(C(=O)c1csnn1)C(C(=O)NC1CCCCC1)c1ccccc1F (stereo unspecified) | inactive: -0.138% | – |
| CCOC(=O)c1c(C)c(C(=O)Nc2ccc(F)cc2)c(C)n1C | inactive: 22.5% | – |
| COC(=O)CSc1nc2ccc(NC(=O)c3ccccc3C(=O)N3CCOCC3)cc2s1 | inactive: -7.21% | – |
| Cc1ccc(S(=O)(=O)N2CCCCC2)cc1NC(=O)C1CC1 | inactive: 0.424% | – |
| COc1ccc(CNCCC(c2ccc(C)cc2)c2ccco2)cc1 (stereo unspecified) | inactive: 4.74% | – |
| O=C(Nc1noc2ccccc12)c1cccc(Cl)c1Cl | inactive: 7.76% | – |
| CCOC(=O)c1cc(NC(=O)CNCC(c2ccccc2)N(C)C)cc(C(=O)OCC)c1 (stereo unspecified) | inactive: -4.64% | – |
| Cc1cccc(OCC(=O)Nc2ccc(S(=O)(=O)Nc3onc(C)c3C)cc2)c1C | inactive: -10.2% | – |
| Cc1cccn2c(=O)c3cc(C(=O)N4CC(C)CC(C)C4)sc3nc12 (stereo unspecified) | inactive: 19.6% | – |
| O=C(CSc1nnc(-c2cccs2)n1CC1CCCO1)c1cc2ccccc2o1 (stereo unspecified) | inactive: 17.2% | – |
| CC1(C(=O)NS(=O)(=O)c2ccc(F)cc2F)CCN1C(=O)CC(c1ccccc1)c1ccccc1 (stereo unspecified) | inactive: 14.6% | – |
| CC(C)(C)NC(=O)c1oc2ccccc2c1COc1ccccc1 | inactive: 17.7% | – |

| SMILES | growth rescue (activation) | Potency |
| --- | --- | --- |
| COc1ccccc1NC(=O)Nc1nc(C(N)C2CCCCC2)cs1 (stereo unspecified) | inactive: 6.95% | – |
| CCOC(=O)c1cc(-c2ccc(N3CCOCC3)cc2)nn1-c1ccccc1 | inactive: -10.7% | – |
| Cc1ccc(OCC(=O)N(C)CC(=O)Nc2ccc(F)cc2)c([N+](=O)[O-])n1 | inactive: -0.218% | – |
| Cc1cc(C)n2nc(SC(C)C(=O)N(C)C3CCCCC3)nc2n1 (stereo unspecified) | inactive: 9.66% | – |
| O=S(=O)(NCc1ccco1)c1ccc2ccccc2c1 | – | active: 11.2 µM |
| CN(C)c1ccc(CC(=O)N2CCCCC2c2cc(C(=O)Nc3cccc4c3CCCC4)no2)cc1 (stereo unspecified) | inactive: 2.11% | – |
| Cc1cc(C)nc(NN=C2CCCC2)n1 | inactive: 22.2% | – |
| Cc1ccc(COC(=O)c2ccc3ccccc3n2)cc1 | inactive: -7.68% | – |
| Cc1ccc(C(=O)Nc2cccc([N+](=O)[O-])c2)cc1S(=O)(=O)Nc1ccc(NC(=O)c2ccccc2)cc1 | inactive: 13.2% | – |
| Cc1ccc(NC(=S)NC2CCCCC2)cc1S(=O)(=O)N(C)C | inactive: 8.18% | – |
| Cn1c(N)c(C(=O)c2ccc(Cl)cc2)c(=O)n(C)c1=O | inactive: -12.1% | – |
| CCc1nc(Nc2ccc(OC)cc2OC)c2oc3ccccc3c2n1 | inactive: -5.33% | – |
| CCC1=NN2C(=N)/C(=C\c3ccc(OCCOc4ccc(NC(C)=O)cc4)cc3)C(=O)N=C2S1 | inactive: 9.51% | – |
| COc1ccc(F)c(CN2CCC(CO)(Cc3cccc(C(F)(F)F)c3)CC2)c1 | inactive: -3.65% | – |
| Cc1cc(C)n(S(=O)(=O)c2ccc3oc(=O)ccc3c2)n1 | inactive: 2.86% | – |
| CC(=O)c1ccc(NC(=O)C2(S(=O)(=O)c3ccccc3)CC2)cc1 | inactive: 12.5% | – |
| CCC(C(=O)Nc1c[nH]c(=O)[nH]c1=O)c1ccccc1 (stereo unspecified) | inactive: 10.5% | – |
| COc1ccc(C(=O)NNC(=O)CSc2nnc(C)n2CC2CCCO2)cc1 (stereo unspecified) | inactive: 10.9% | – |
| Cc1ccc(NC(=O)[C@@H]2O[C@H](CO)[C@@H](O)[C@H]2O)cc1C(F)(F)F | inactive: 8.79% | – |
| Nc1nonc1-n1nnc(C(=O)N/N=C/c2cc(Br)ccc2O)c1CNc1ccccc1 | inactive: 5.58% | – |
| O=C1CN(S(=O)(=O)c2cccc(Br)c2)CCN1 | inactive: -1.66% | – |
| CC1CCCC(NC(=O)COC(=O)COc2cccc(F)c2)C1C (stereo unspecified) | inactive: -1.64% | – |

| SMILES | growth rescue (activation) | Potency |
| --- | --- | --- |
| O=C(Nc1ccccc1C(=O)O)c1cc(S(=O)(=O)Nc2ccccc2)ccc1Cl | inactive: -7.96% | – |
| COCCN(C(=O)CSc1ccc2c(c1)OCCO2)c1c(N)n(CC(C)C)c(=O)[nH]c1=O | inactive: 11.6% | – |
| O=C(COC(=O)c1cc(-c2cccc(Br)c2)nc2ccccc12)NCC1CCCO1 (stereo unspecified) | inactive: -13% | – |
| CSc1ccccc1NC(=O)Nc1ccccc1Cl | inactive: 1.52% | – |
| Cc1ccccc1Oc1nc2ccccn2c(=O)c1/C=C(\C#N)C(=O)Nc1c(C)n(C)n(-c2ccccc2)c1=O | inactive: 0.646% | – |
| NS(=O)(=O)c1cccc(NC(=O)c2cccc(S(=O)(=O)N3CCCCCC3)c2)c1 | inactive: 28.6% | – |
| COc1ccc(C(CNc2ncnc3sccc23)N(C)C)cc1OC (stereo unspecified) | inactive: 17.5% | – |
| C=CCn1c(=O)[nH]c2cc(C(=O)N3CC=C(c4ccccc4)CC3)ccc2c1=O | inactive: -3.18% | – |
| CCn1c(=O)c(=O)[nH]c2cc(C(=O)NCC3CCCCC3)ccc21 | inactive: 11.3% | – |
| CC(C)CN(C(=O)c1ccc(F)cc1F)c1c(N)n(CC(C)C)c(=O)[nH]c1=O | inactive: -1.9% | – |
| Cc1ccc(CN2C3CCCC2CC(NC(=O)c2ccc(C)cc2)C3)cc1 (stereo unspecified) | inactive: 7.33% | – |
| CC(C)CNC(=O)COC(=O)/C=C/c1ccco1 | inactive: 9.37% | – |
| Cc1cc(C(=O)O)cc(S(=O)(=O)Nc2c(C)nn(C)c2C)c1C | inactive: 16.1% | – |
| CCOC(=O)/C(=C/C=C1\Sc2ccccc2N1CC)C(C)=O | inactive: 28.9% | – |
| CCN(C(=O)CSc1nc(-c2ccccc2)c(-c2ccccc2)[nH]1)C1CCS(=O)(=O)C1 (stereo unspecified) | inactive: 3.34% | – |
| O=C(CCS(=O)(=O)c1ccc(Br)cc1)Nc1ccc(Cl)cc1F | inactive: 18.1% | – |
| Cc1cc(C)c2oc(C(=O)N(Cc3ccccc3)c3ccccn3)cc(=O)c2c1 | inactive: 6.64% | – |
| OC[C@@H]1CN(Cc2ccncc2)C[C@H](n2cnc3c(N4CCN(c5ccccc5)CC4)ncnc32)O1 | inactive: -4% | – |
| Cc1cc(O)cc(O)c1-c1onc(C(F)(F)F)c1-c1cscn1 | inactive: 7.79% | – |
| OC(c1cccnc1)c1nc(-c2cccc(F)c2)cs1 (stereo unspecified) | inactive: 13.4% | – |
| COc1ccc(NS(=O)(=O)c2cccc(C(=O)N/N=C/c3ccccc3OC)c2)cc1 | inactive: 7.18% | – |
| O=C(COC(=O)CC1CC2CCC1C2)Nc1ccccc1[N+](=O)[O-] (stereo unspecified) | inactive: -27.4% | – |

Reference: PubChem BioAssay AID1347073 (National Center for Advancing Translational Sciences (NCATS), 2019)
